Measurements reported in PubChem BioAssay (NCATS).
Where “and” joins values, the source holds several entries; their conditions need not be identical. Equal values may be shown once. Inconclusive means that the source gave no clear call. Such entries were picked first, then a sample of the others. No potency is given beside an inconclusive call; the fits are too rough. Calls of active or inactive are those of the source. The call rests on the fitted dose curve; in most records, active means well fitted cell-killing curve with a large enough effect; inconclusive means small, poorly fitted or top-dose-only effect; inactive means no such curve, though single readings can be large or run the other way.

Assay: qHTS of pediatric cancer cell lines to identify multiple opportunities for drug repurposing: Primary screen for Saos-2 cells (AID 1347097); further: nearly all actives have a fitted effect of over 40% in size
Conditions: Saos-2 viability, CellTiter-Glo ATP luminescence, 48 h; activity change, negative = cytotoxic: at 46 µM (top of the series)
From the text: Drug repurposing or repositioning has been offered as a strategy for drug development in oncology programs. This approach has special potential for childhood cancers and other rare or orphan diseases, where the expected return on new drug development has been a disincentive to pharmaceuticals. […] In this project we exploit the poly-pharmacology of drugs to discover new indications via phenotypic screening of a panel of 19 well-characterized cell lines derived from solid tumors seen in children and adolescents. The goal is to identify approved drugs with previously unrecognized anticancer properties that has the potential to reveal new mechanisms and biological processes involved in carcinogenesis or drug resistance. We employed a titration-based paradigm (quantitative high-throughput screening or qHTS), where all compounds were tested at multiple concentrations for their effect on cell viability. Concentration-response curves (CRCs) were derived directly from the primary screen, and both potency and efficacy values were used to identify compounds with robust bioactivity profiles. We screened the NIH Chemical Genomics Center (NCGC) Pharmaceutical Collection (NPC) and Mechanism Interrogation Plate (MIPE) small molecule collections of approved and investigational compounds against these cell lines; and measured metabolically active cells after 48 hours of compound treatment as a proxy for cell viability. […] Assay Submitter: Nathalia J. Martinez, National Center for Advancing Translational Sciences, National Institutes of Health, Rockville, MD, USA; email: natalia.martinez@nih.gov Shen, M et al. Quantitative high-throughput phenotypic screening of pediatric cancer cell lines identifies multiple opportunities for drug repurposing. Oncotarget 2017 Dec 19;9(4):4758-4772. PMID 29435139.
The cells were obtained from University of North Carolina (UNC), Pediatric Preclinical Testing Program (PPT), and Coriell Institute (CI). qHTS cell viability assay: Cells were assayed in growth media at a density of 500-1,000 cells/well. Five microliters of cells were dispensed into 1,536-well, white, solid-bottom, TC-treated plates (Greiner Bio One) using a multidrop dispenser and incubated at 37 degrees C, 5% CO2, under a humidified atmosphere for 5 hours. Twenty-three nanoliters of compounds and controls (neutral control DMSO or positive control bortezomib at final concentration of 2.3 µM) were subsequently transferred by Kalypsys pintool. For primary screens, the MIPE collection was tested at 11-point dilutions (final concentrations range from 0.78 nM to 46 µM) and the NPC collection at 8-point dilutions (final concentrations range from 0.59 nM to 46 µM). Compounds tested in follow-up screens were assayed at 11-point dilutions. Cells were incubated for 48 hours, followed by addition of 3 µL of CellTiter-Glo (Promega). After a 15 min incubation at room temperature, samples were analyzed for luminescence intensity using a ViewLux High-throughput CCD imager equipped with clear filters.
On the % scale 0 is the no-effect control and ±100 the full control effect; potency means the concentration at half of the fitted maximal effect; tags describe the fitted curve by direction and shape.

Row | SMILES | Potency | activity change, negative = cytotoxic
1 | Oc1ccc(CCNCCCCCCNCCc2ccccc2)cc1O | inconclusive [cytotoxic, single point] | 
2 | COc1cc(Cc2cnc(N)nc2N)cc(OC)c1OC |  | inactive: -7.94%
3 | CCCCCN(CCCCC)C(=O)C(CCC(=O)O)NC(=O)c1ccc(Cl)c(Cl)c1 (stereo not given) |  | inactive: 0.715%
4 | Nc1ccc(/C=C/c2ccc(N)cc2S(=O)(=O)O)c(S(=O)(=O)O)c1 |  | inactive: 2.49% [at 0.597 µM]
5 | CN(C)CCN1CCN(c2cccc(Cl)c2)C1=O |  | inactive: 3.02%
6 | OCc1ccc(Cl)cc1Cl | inconclusive [cytotoxic, partial curve] | 
7 | N[C@@H](Cc1cc(I)c(O)c(I)c1)C(=O)O | inconclusive [cytotoxic, partial curve] | 
8 | CC(=O)O[C@H]1C[C@@H]2CC[C@@H]3[C@H](CC[C@@]4(C)[C@H]3C[C@H]([N+]3(C)CCCCC3)[C@@H]4OC(C)=O)[C@@]2(C)C[C@@H]1N1CCCCC1 |  | inactive: 18%
9 | O=C1NC(=O)C(c2ccccc2)(c2ccccc2)N1 |  | inactive: -13%
10 | O=C(O)c1ccccc1Nc1cc(Cl)ccc1C(=O)O | active: 9.2 µM | 
11 | CN1CCN(N)CC1 | inconclusive [cytotoxic, single point] | 
12 | CC(C)(C)C(=O)OCOP(=O)(COCCn1cnc2c(N)ncnc21)OCOC(=O)C(C)(C)C | active: 26.6 µM and active: 23.5 µM | 
13 | C/C=C/C=N/NC(=O)c1ccncc1 |  | inactive: -8.42%
14 | CC(C)=CCC/C(C)=C/CC/C(C)=C/CCC(=O)OC/C=C(\C)CCC=C(C)C |  | inactive: 10.3%
15 | CCn1cc(C(=O)O)c(=O)c2cc3c(cc21)OCO3 |  | inactive: -7.75% [at 16.1 µM]
16 | CNC(=O)CN1CCC(Oc2cc3c(Nc4cccc(Cl)c4F)ncnc3cc2OC)CC1 | active: 0.0187 µM | 
17 | Oc1c(Cl)cc(Cl)cc1Sc1cc(Cl)cc(Cl)c1O | inconclusive [cytotoxic, single point] | 
18 | COc1cc(/C=C/C(N)=O)cc(OC)c1OC |  | inactive: -23%
19 | CN(C)CCCOC1(Cc2ccccc2)CCCCCC1 | inconclusive [cytotoxic, partial curve, poor fit] | 
20 | CC(=O)O[C@H]1CC[C@@]2(C)C(=CC[C@@H]3[C@@H]2CC[C@]2(C)C(C(C)=O)=CC[C@@H]32)C1 | inconclusive [cytotoxic, partial curve] | 

Row | SMILES | Potency | activity change, negative = cytotoxic
21 | C[C@]12C=CC(=O)C=C1CC[C@@H]1[C@@H]2[C@@H](O)C[C@@]2(C)[C@H]1CC[C@]2(O)C(=O)CO | inconclusive [cytotoxic, single point] | 
22 | CCOc1ncc(F)c(=O)[nH]1 |  | inactive: 23.9%
23 | COC(=O)CCCCC(CCSS/C(CCO)=C(\C)N(C=O)Cc1cnc(C)nc1N)SC(C)=O (stereo not given) | inconclusive [cytotoxic, partial curve] | 
24 | O=C1CCCc2c(O)cccc21 |  | inactive: -19.8%
25 | C#C[C@]1(O)CC[C@H]2[C@@H]3CCC4=CC(=O)CC[C@@H]4[C@H]3CC[C@@]21CC | inconclusive [cytotoxic, partial curve, poor fit] | 
26 | Cc1ncc(CO)c(CO)c1O |  | inactive: -3.98%
27 | C[N+](C)(C)CC(O)CC(=O)[O-] (stereo not given) | inconclusive [cytotoxic, partial curve, poor fit] | 
28 | CCN(CC)C(=O)C1CN2CCc3cc(OC)c(OC)cc3C2CC1OC(C)=O (stereo not given) | inconclusive [cytotoxic, single point] | 
29 | CC(=O)CC/C=C(\C)CC/C=C(\C)CC/C=C(\C)CCC=C(C)C |  | inactive: 3.92%
30 | Nc1ncnc2c1ncn2[C@@H]1O[C@H](COP(=O)(O)O)[C@@H](O)[C@H]1O | inconclusive [cytotoxic, partial curve] | 
31 | CC(Cc1ccccc1)(NC(=O)CN)c1ccccc1 (stereo not given) |  | inactive: 9.95%
32 | Cc1ccc(/C=N/n2c(-c3ccccc3)csc2=S)cc1 |  | inactive: 22.3%
33 | O=c1[nH]c(=O)n([C@H]2O[C@H](CO)[C@@H](O)[C@@H]2O)cc1/C=C\Br | inconclusive [cytotoxic, partial curve] | 
34 | Cc1cccc(Nc2ccccc2C(=O)O)c1C | inconclusive [cytotoxic, partial curve] | 
35 | CC(=O)N(CC(=O)N(C)C)c1ccccc1 | inconclusive [cytotoxic, partial curve, poor fit] | 
36 | CC(=O)CC(c1ccc([N+](=O)[O-])cc1)c1c(O)c2ccccc2oc1=O (stereo not given) |  | inactive: -20.1%
37 | Cc1onc(-c2c(Cl)cccc2Cl)c1C(=O)N[C@@H]1C(=O)N2[C@@H]1SC(C)(C)[C@@H]2C(=O)O |  | inactive: -21.9%
38 | O=C1CC[C@@H](C(=O)O)N1 | inconclusive [cytotoxic, partial curve] | 
39 | C[C@H]1O[C@H](O[C@H]2[C@H](O)[C@@H](O)[C@@H](O[C@H]3[C@H](O)[C@@H](O)[C@H](O)O[C@@H]3CO)O[C@@H]2CO)[C@H](O)[C@@H](O)[C@@H]1N[C@H]1C=C(CO)[C@@H](O)[C@H](O)[C@H]1O |  | inactive: 6.99%
40 | C[C@H](CS)C(=O)N1CCC[C@H]1C(=O)O |  | inactive: -22.2%
